Reference: the BET-seq Pho4 binding data (Le et al. 2018)
Some of the results follow. The energies were worked out here from pooled read counts, against the library average; single values are noisy.

What follows are sequences tested against T1, Pho4 (S. cerevisiae) (UniProt P07270) (assay: relative binding free energy (BET-seq); higher = weaker binding). Details: reference: library average.
T1 sequence: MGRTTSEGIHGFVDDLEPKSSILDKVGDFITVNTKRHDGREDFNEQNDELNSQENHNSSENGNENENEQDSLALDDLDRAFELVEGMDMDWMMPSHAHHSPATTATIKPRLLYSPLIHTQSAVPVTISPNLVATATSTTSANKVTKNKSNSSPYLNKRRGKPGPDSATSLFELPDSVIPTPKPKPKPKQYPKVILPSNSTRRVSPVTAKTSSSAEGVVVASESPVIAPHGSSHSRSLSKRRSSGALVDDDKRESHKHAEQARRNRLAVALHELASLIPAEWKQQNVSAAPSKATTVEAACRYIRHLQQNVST

Sequence	relative binding free energy [kcal/mol]
CAGTACACGTGGGGTG	-0.11
TTTTTCACGTGGATGC	0.2
GGTCACACGTGTGAGG	0.15
GGTCGCACGTGGCGTT	-0.24
GGGCGCACGTGAGTAT	0.07
TGGATCACGTGTCGTG	0
GGCTTCACGTGTGAAA	0.44
GATTACACGTGTATGG	0.09
AGCAGCACGTGCGGGT	-0.18
GTTATCACGTGTATAG	0.22
TGCGTCACGTGATTTA	0.29
AGCAGCACGTGACGGG	0.13
GGCGCCACGTGGTTGG	-0.19
TCTGGCACGTGTAAGA	0.05
TGGTTCACGTGTTCTT	0.23
AAGGCCACGTGGTGGG	-0.16
GTTGCCACGTGTGTAG	-0.11
TTTTACACGTGTTACG	0.17
ATGTACACGTGGTGTG	0.02
GATGCCACGTGCGTTT	0.19
GCATGCACGTGGTTTT	-0.04
ATGGTCACGTGTTGAT	0.14
TGGTACACGTGATTAT	0.22
GCGAACACGTGAGGTG	0.17
ATATGCACGTGTCTGG	-0.07
TTTGCCACGTGCTGGA	-0.04

Sequence	relative binding free energy [kcal/mol]
AATGTCACGTGGTGGA	0.04
CTTAGCACGTGTTAAT	-0.03
ATAATCACGTGATAAG	0.31
TTGGGCACGTGATCTG	-0.08
TATGTCACGTGGACAA	0.1
TCGTTCACGTGCTGTG	0.02
ATGGCCACGTGGCGTG	-0.05
AGTTTCACGTGTAATT	0.24
GGTGGCACGTGGTTGC	-0.02
ATATACACGTGTCTTT	0.03
GGGGACACGTGGTCGA	-0.07
ATGGGCACGTGATGGT	-0.04
AGAGACACGTGAGTTG	0.18
ATTGGCACGTGGTATT	-0.27
TTGTACACGTGCTGGT	-0.05
GTCGGCACGTGAGATG	0.22
GTAAGCACGTGTTGAG	0.01
TTGACCACGTGAGGTG	0.2
ACGAGCACGTGGCGGG	-0.21
TTTATCACGTGTGGAG	0.24
CGATGCACGTGGCGGA	-0.05
TTTAACACGTGTTATA	0.04
CTAGGCACGTGGTTTT	-0.11
GATCTCACGTGGGATG	0.18
TGGAGCACGTGGTCGG	-0.21
TACTTCACGTGGGGGT	0.06

Sequence	relative binding free energy [kcal/mol]
TATTGCACGTGGATCG	0.09
CGTGGCACGTGTATAG	-0.06
TCATGCACGTGATGGG	0.09
TGTTCCACGTGTATTT	0
TTAGGCACGTGTGGGA	-0.02
AGTTTCACGTGGGCCT	0.22
CCTGGCACGTGAGTTG	0.19
CGTTTCACGTGTGAAT	0.26
GGTTTCACGTGAATCT	0.44
ATTGGCACGTGTCGTA	-0.11
CGTCTCACGTGGTGGG	0.12
CTTGGCACGTGGAGTC	-0.11
ATGTTCACGTGTGTGG	0.31
GGTGCCACGTGTAGTT	0.03
AGTAGCACGTGTGAAG	0.08
GAGGACACGTGAGAGG	0.36
TGTGACACGTGAATAG	0.15
TGTTGCACGTGATACG	-0.01
TAAATCACGTGGCGGG	-0.02
GATAACACGTGGGTGG	0
TCGAGCACGTGTGAGT	0
AGGATCACGTGTGCTT	0.22
GGTTGCACGTGGACGG	0.05
TGGAACACGTGGGGGT	-0.03
TGTTTCACGTGCGAGG	0.21
TTAATCACGTGAAAAG	0.42

Sequence	relative binding free energy [kcal/mol]
AAGGGCACGTGAGGTA	0.1
TTTCGCACGTGATGAG	0.14
GGTAGCACGTGGGTAG	-0.14
TTAATCACGTGCTGTG	0
GTTGTCACGTGACTGT	0.11
AGCTGCACGTGGGTTG	-0.13
TTAGGCACGTGGTGTT	-0.2
AGGGACACGTGTCGGT	-0.1
TTGGCCACGTGGTGAG	0.04
TGTTGCACGTGGCGGT	-0.11
AGTTACACGTGCATTT	0.13
TATGTCACGTGGGCCA	-0.01
TTGGCCACGTGGTTGT	-0.01
GTCGGCACGTGTGAGT	0.06
AGGTACACGTGTAAGG	0.03
ACGGTCACGTGAGGGA	0.28
TAATGCACGTGGTAGC	-0.03
TAAGACACGTGTGGCG	0
TTCTGCACGTGTGTCT	0.06
TGGGTCACGTGGCTAA	0.01
CTTGTCACGTGTGTTA	0.13
GTCTGCACGTGTATTG	0.11
AGGGGCACGTGCGGGA	-0.16
GTTTGCACGTGAGTTG	0.33
GGTTTCACGTGTCTGG	0.33
TTAGGCACGTGAAGCG	0.2

Sequence	relative binding free energy [kcal/mol]
ATCAACACGTGGGTTT	0.02
TATTACACGTGGGATT	-0.04
TTATGCACGTGAACGG	0.22
AGGTGCACGTGGCATT	-0.24
TGGAACACGTGTAGCG	0.07
TTGTTCACGTGCTTTA	0.24
TTACACACGTGTGTTT	0.01
GACTACACGTGAGGGT	0.35
TGTTGCACGTGAACTG	0.22
TGGCGCACGTGGGGAA	-0.33
GCAATCACGTGGTTTT	0.24
CGGGTCACGTGTCGGT	0.15
TTTATCACGTGTGAAG	0.12
CGTCGCACGTGGTTGG	-0.19
TAGTGCACGTGCGGGA	0.03
TAGTTCACGTGCTTTT	0.32
ATAGGCACGTGTGTTT	0.07
TTGGTCACGTGCGGGC	0.13
ATTGTCACGTGGTCAT	0
ACATGCACGTGATGGG	0.08
GTTTTCACGTGAGTAC	0.45
TTAGTCACGTGCAGGC	0.1
GAATTCACGTGTGTAA	0.21
TTCGGCACGTGTTGTG	-0.15
AGTCTCACGTGGTGGG	0.22
TGTGACACGTGGACGT	-0.14

Sequence	relative binding free energy [kcal/mol]
ATCATCACGTGGAAGT	0.3
ATTCGCACGTGAGTGT	0.02
TCAGCCACGTGTGAGG	0.14
ACAGACACGTGTGGGG	-0.04
TAGTGCACGTGGGACG	-0.1
ATGTCCACGTGTGTAG	0.05
ATTCGCACGTGTGATA	0.02
TGGTGCACGTGCGCAT	-0.16
AGTGGCACGTGAGGGG	0.13
TTGTTCACGTGCGCTA	0.18
GGGTGCACGTGCTGGA	-0.07
TTGGACACGTGTGATG	0.12
TGGTACACGTGCAGGT	0.2
TTTGGCACGTGATTGT	0.04
GATGGCACGTGGAGAT	0.09
TGTTTCACGTGGAGCT	0.3
TAAATCACGTGAGTGG	0.36
GGGGGCACGTGCTTGG	-0.1
GTTGACACGTGACTTG	0.13
GTTCTCACGTGCTAGG	0.35
GTTTACACGTGACTTA	0.43
TTTAGCACGTGTGGTC	0.07
CGATGCACGTGGATGG	-0.03
CGCGGCACGTGGGAGG	-0.34
TATCGCACGTGGTGGC	-0.07
ATTCTCACGTGAGCGT	0.34

Sequence	relative binding free energy [kcal/mol]
GTGGTCACGTGTATTT	0.23
GTTATCACGTGGTCTA	0.08
GGGTTCACGTGCAGCG	0.31
CTGTTCACGTGCGGTG	0.2
GAAGACACGTGGGTGT	-0.01
ACGTGCACGTGGCGGT	-0.12
GTAGTCACGTGGCATG	0.16
TAGATCACGTGGGATA	0.26
CGTAACACGTGGGAGG	-0.12
GAGTACACGTGGAGTG	0.05
AGTGTCACGTGGCTTT	0
TTGGCCACGTGTAAGT	0.13
GGTAACACGTGGTGAT	0.01
TTGTTCACGTGACATG	0.29
TGGGACACGTGGCAGT	-0.02
ATTGACACGTGGAATG	0.15
TGGATCACGTGTTCTT	0.07
TTCATCACGTGGGGTA	-0.03
GATCTCACGTGTGGGC	0.24
TTTTTCACGTGCTGTG	0.17
TGTGTCACGTGGTCCA	0.07
CGTTGCACGTGGCGGG	-0.12
TCTGTCACGTGGCATT	0.06
AAAGTCACGTGTCTTT	0.09
CGTTACACGTGGTTTT	0
GACATCACGTGGTTGG	0.29

Sequence	relative binding free energy [kcal/mol]
TTCCGCACGTGGTTTT	-0.01
AGAGTCACGTGCTGGC	0.22
GTGTCCACGTGGGGCT	-0.06
AGTATCACGTGATGCA	0.44
GCTGTCACGTGATTGG	0.27
CTGCGCACGTGTGAGT	-0.11
GGTTGCACGTGCACGG	0.07
GATGTCACGTGGCAAG	0.2
TGGAGCACGTGGAGAG	-0.12
TATGTCACGTGTTGGA	0.18
TCCTGCACGTGGAGGT	-0.07
GTGCACACGTGTTGGT	0.11
ATGGGCACGTGCTTAG	-0.11
AGGGCCACGTGCGGTA	-0.19
GGAGGCACGTGGGGGA	-0.16
TTGGACACGTGGTATG	0.05
TGTATCACGTGCTTGG	0.08
GCTTGCACGTGTGAAG	0.09
GTATGCACGTGGAAGG	0.07
GATTGCACGTGGGGAA	-0.09
GGGAGCACGTGGAAGC	-0.05
GAGGTCACGTGTGGGT	0.26
TAGTGCACGTGGGAGG	-0.06
ATACTCACGTGTGGTC	0.3
GGGTGCACGTGGACAT	-0.1
AGTGTCACGTGGCTAG	0

Sequence	relative binding free energy [kcal/mol]
TAATACACGTGTCTTT	0.18
GAGTTCACGTGAATGT	0.47
GTGTTCACGTGAAAGC	0.4
TATATCACGTGTCGTA	0.05
TAGAGCACGTGTGTCG	-0.19
GTTCACACGTGATTTT	0.28
TATCTCACGTGTAGAG	0.27
AGCAACACGTGGGTGT	-0.04
AGGAGCACGTGATATG	0.02
CGGGGCACGTGTGCTA	-0.05
ACGTACACGTGTGCGG	0.22
GTGGACACGTGGGGTT	-0.09
GAGTGCACGTGGCTGT	-0.18
GATGGCACGTGGGTGC	-0.28
GGGTCCACGTGATCGG	0.22
AATATCACGTGTGGCA	0.29
AGTGCCACGTGAAAGT	0.25
TTCTGCACGTGATTGT	0.18
TTGGTCACGTGAGGGC	0.24
TACTTCACGTGTTATT	0.24
AAGGCCACGTGGGTTT	-0.14
TAGTACACGTGGCTGT	-0.03
